Laboratory results as given in PubChem BioAssay AID624296 (National Center for Advancing Translational Sciences (NCATS), 2012).
Screen size: about 350,000 compounds; about 9,900 (2.8%) were called active. Inconclusive means that the source gave no clear call. Such entries were picked first, then a sample of the others. Calls follow the shape of the dose curve; as a rule, active = well fitted activation curve with a large enough effect; inconclusive = small, poorly fitted or top-dose-only effect; inactive = no such curve, though single readings can be large or run the other way. Potencies of inconclusive entries are left out as doubtful fits.

Assay: A quantitative high throughput screen for small molecules that induce DNA re-replication in MCF 10a normal breast cells. Also: nearly all actives have a fitted effect of over 50% in size. As to activity, positive = re-replication: % of control where 0% means no effect.
Conditions: MCF 10A DNA re-replication, Hoechst nuclear intensity, 48 h; activity, positive = re-replication: at 46.1 µM (top of the series)
Potency is read from the fitted curve at half-maximal effect; tags tell the direction and shape of the fitted curve.

| Structure (SMILES) | Potency | activity, positive = re-replication |
| --- | --- | --- |
| CCOC(=O)c1cc(C(=O)OCC)c(=O)[nH]c1SCc1ccccc1 | inconclusive [activator, partial curve] | – |
| CC(=O)NCc1ccc(C(=O)CCl)cc1 | inconclusive [activator, single point] | – |
| O=C(CCCOc1ccccc1)Nc1cccc(S(=O)(=O)N2CCCCCC2)c1 | inconclusive [activator, full curve, poor fit] | – |
| COCc1cc(=O)[nH]c(-c2ccccc2)n1 | – | inactive: -5.61% |
| CC(=O)c1c(C)[nH]c(C(=O)OCC(=O)NCc2ccc(Cl)cc2)c1C | inconclusive [activator, single point] | – |
| COc1ccc(-c2[nH]c3ccccc3c2SCCN)cc1 | – | inactive: -1.62% |
| CCCNc1nc(C)cc(-c2cc(C(=O)NCc3ccccc3)on2)n1 | inconclusive [activator, full curve, poor fit] | – |
| CCn1c(SCC(=O)Nc2ccc(OC)c(OC)c2)nnc1-c1cnccn1 | – | inactive: 8.14% |
| COc1ccc2c(c1)c(N=NC(N)=S)c(O)n2CC(=O)c1ccccc1 | – | inactive: -1.27% |
| O=C(Oc1ccc(OC(=O)N2CCCCC2)cc1)c1ccccc1 | – | inactive: 2.61% |
| CCC(=O)Nc1ccc(C(=O)Cn2ncc(Cl)c(Cl)c2=O)cc1 | active: 3.66 µM | – |
| CN1CCN(C(=O)C2CCN(c3ncc(C(F)(F)F)cc3Cl)CC2)CC1 | inconclusive [activator, partial curve, poor fit] | – |
| c1ccc(Cn2c(NCc3ccccn3)nc3ccccc32)cc1 | – | inactive: 0.787% |
| O=C(CC(=O)c1c(F)cccc1Cl)c1ccccc1O | – | inactive: 16.4% |
| CN(CCNC(=O)c1cc2c(=O)n(C)c3ccccc3c2n1C)Cc1ccccc1 | active: 20.6 µM | – |
| Cn1c(CCNC(=O)c2ccco2)nc2cc(NC(=O)c3ccccc3Cl)ccc21 | – | inactive: 5.03% |
| O=C(N1CCN(c2ccc(F)cc2)CC1)C12CC3CC(CC(C3)C1)C2 | – | inactive: 4.41% |
| CCOc1ccc(-c2ccc(/C=C3/C(=N)N4C(C)=CSC4=NC3=O)o2)c([N+](=O)[O-])c1 | inconclusive [activator, single point] | – |
| COc1cnc(-c2ccccn2)nc1Sc1cccc(Cl)c1 | active: 20.6 µM | – |
| Cc1oc(-c2cccc(Cl)c2)nc1CN1CCCC(C(=O)NCCCN2CCOCC2)C1 (stereo not given) | inconclusive [activator, single point] | – |
| C/C(=N\NS(=O)(=O)c1ccc(Cl)c([N+](=O)[O-])c1)c1cc2ccccc2o1 | inconclusive [activator, partial curve, poor fit] | – |
| O=C(Nc1c[nH]c(=O)[nH]c1=O)c1ccccc1Cl | inconclusive [activator, single point] | – |
| CCCCc1[nH]c(=O)c(C#N)c2c1CCCC2 | inconclusive [activator, partial curve, poor fit] | – |
| Cc1ccc(C)c(NC(=O)CN(C)C(=O)c2ccccc2OCc2ccccc2Cl)c1 | – | inactive: 9.83% |

| Structure (SMILES) | Potency | activity, positive = re-replication |
| --- | --- | --- |
| CC1CCN(CC(=O)Nc2ccc(S(=O)(=O)N3CCCCC3)cc2)CC1 | active: 2.31 µM | – |
| Cc1cc(-c2nc3cccnc3s2)ccc1NS(=O)(=O)c1cccs1 | active: 5.8 µM | – |
| CCOC(=O)[C@H]1[C@H]2COc3ccc(C)cc3[C@@H]2N2C(=O)CN(Cc3ccco3)C(=O)[C@@]12C | – | inactive: 24% |
| COC(=O)c1ccc(CSC2=NCCS2)cc1 | – | inactive: 7.82% |
| O=C(Nc1nc2c(F)cc(F)cc2s1)c1ccccn1 | – | inactive: 3.09% |
| N#Cc1c(-c2ccccc2)nc(SCC(=O)Nc2ccccc2)[nH]c1=O | inconclusive [activator, single point] | – |
| C=CCc1ccc(OCCCNCc2ccccc2)c(OC)c1 | – | inactive: -1.97% |
| CCOc1ccc(C(=O)NNC2CC(=O)N(Cc3ccc(Cl)cc3)C2=O)cc1OC (stereo not given) | – | inactive: 0.468% |
| CCOc1ccc(S(=O)(=O)N2CCCCC2)cc1NC(=O)Cc1cccc(C(F)(F)F)c1 | inconclusive [activator, partial curve, poor fit] | – |
| N#C/C(=C(O)\C=C\c1ccccc1)c1nc2ccccc2[nH]1 | inconclusive [activator, full curve] | – |
| COc1ccc(C(=O)c2cnc3ccccc3c2-c2ccccc2)cc1 | active: 18.4 µM | – |
| CCCCCCCn1c(=N)n(CC(O)c2ccco2)c2ccccc21 (stereo not given) | inconclusive [activator, full curve, poor fit] | – |
| O=C(O)c1sc2cccc(Cl)c2c1Cl | inconclusive [activator, partial curve, poor fit] | – |
| CC(C)C[C@@H](CN1CCCC1CN1C(=S)NC[C@@H]1Cc1ccc(O)cc1)N1C[C@H](Cc2ccc(O)cc2)N(CCc2ccccc2)C1=S (stereo not given in full) | – | inactive: 9.82% |
| Cc1ccnc(NC(=O)c2ccc(C(=O)c3ccccc3)cc2)c1 | inconclusive [activator, partial curve, poor fit] | – |
| N#C/C(=C(/O)COC(=O)CSc1ccc2ccccc2c1)c1nc2ccccc2[nH]1 | inconclusive [activator, single point] | – |
| CCN=c1scc(C)n1/N=C/c1ccc(O)c(O)c1O | – | inactive: -2.73% |
| CCC(C(=O)N1CCN(c2cccc(Cl)c2)CC1)c1ccccc1 (stereo not given) | inconclusive [activator, single point] | – |
| CSc1nnc(C)c(/C=C/Nc2ccc(F)cc2)n1 | inconclusive [activator, single point] | – |
| Cc1ccc(CNC(=O)C2CCN(S(=O)(=O)c3ccc(Br)s3)CC2)cc1 | inconclusive [activator, partial curve, poor fit] | – |
| COc1ccc(Nc2oc(COc3ccc(OC)cc3)nc2C#N)cc1 | inconclusive [activator, single point] | – |
| CCN(CC)c1nc(-c2ccccc2)cc(C(F)(F)F)c1C#N | inconclusive [activator, single point] | – |
| Cc1ccc2cccc(OCCCOc3ccccc3F)c2n1 | active: 13 µM | – |
| CCCCN(C)CCCNC(=O)c1cc(-c2cccs2)nc2ccccc12 | inconclusive [activator, single point] | – |

| Structure (SMILES) | Potency | activity, positive = re-replication |
| --- | --- | --- |
| CC(=O)N1CCCc2cc(S(=O)(=O)N3CCCC(C(=O)N4CCN(c5ccccc5)CC4)C3)ccc21 (stereo not given) | – | inactive: -11.2% |
| Cc1cccc(C)c1-n1c(C)cc(/C=N\NC(=O)CC(=O)NC2CCCCC2)c1C | inconclusive [activator, partial curve, poor fit] | – |
| COC(=O)Nc1ccc(S(=O)(=O)N2CCCC(C(=O)N3CCC(C)CC3)C2)cc1 (stereo not given) | inconclusive [activator, partial curve, poor fit] | – |
| O=C(NC1CCCC1)c1n[nH]c2ccccc12 | inconclusive [activator, single point] | – |
| O=C(CCl)N(C1CCCC1)C1CCS(=O)(=O)C1 (stereo not given) | inconclusive [activator, single point] | – |
| CCN(CC)CCCN=C1N[C@@H](c2cccc(F)c2)C(C(=O)OC)=C(C)N1Cc1ccccc1 | inconclusive [activator, single point] | – |
| O=C(CC1Nc2ccccc2NC1=O)NCCc1ccccc1 (stereo not given) | inconclusive [activator, single point] | – |
| O=C(NCC(c1cccs1)N1CCOCC1)C1CCN(S(=O)(=O)c2cccc(C(F)(F)F)c2)CC1 (stereo not given) | inconclusive [activator, partial curve, poor fit] | – |
| C#CCOCCOCCOCCNc1nc(N2CCN(C(=O)[C@H]([C@@H](C)CC)n3cc([C@@H](N)CC(C)C)nn3)CC2)nc(N2CCN(C(=O)[C@H](CCCCN)n3cc([C@@H](N)CO)nn3)CC2)n1 | – | inactive: -0.401% |
| C=CC(=O)Nc1ccc(N(C)c2ccnc(Nc3ccc(N4CCN(C)CC4)cc3)n2)cc1 | inconclusive [activator, full curve, poor fit] | – |
| COC(=O)CN(C)C(=O)c1ccccc1OC1CCN(S(C)(=O)=O)CC1 | – | inactive: 0.25% |
| CN(C)S(=O)(=O)c1ccc(Cl)c(NC(=O)CSc2nc3c(cc2C#N)C(=O)CCC3)c1 | inconclusive [activator, partial curve, poor fit] | – |
| COc1ccccc1-c1nnc(SCC(=O)N2CCOCC2)n1-c1ccccc1 | – | inactive: 0.212% |
| CCOC(=O)C1=C(C)Nc2ncnn2C1c1cccs1 (stereo not given) | – | inactive: 3.28% |
| Cc1cc(S(=O)(=O)NCc2ccc(N3CCN(C)CC3)cc2)c(C)s1 | inconclusive [activator, single point] | – |
| COC(=O)c1ccc(CNC(=O)c2ccc(S(=O)(=O)N3CCCC(C)C3)cc2)cc1 (stereo not given) | – | inactive: -1.09% |
| COc1ccc(-c2nc3c(C(=O)NCCN(C)C)cccc3c3ccccc23)cc1 | inconclusive [activator, single point] | – |
| CO/N=C/c1c(-c2ccc(Cl)cc2)nc2cc(C)ccn12 | inconclusive [activator, single point] | – |
| O=C(CSc1nnc(-c2ccc(S(=O)(=O)N3CCCC3)cc2)o1)NCc1ccccc1 | – | inactive: -182% [at 0.0737 µM] |
| c1ccc2c(c1)NC1(CCCCC1)n1c-2nc2ccccc21 | inconclusive [activator, full curve, poor fit] | – |
| Cc1ccccc1N/C(=C(/C(Cl)=C(Cl)Cl)[N+](=O)[O-])n1nnc2ccccc21 | inconclusive [activator, single point] | – |
| COC(=O)c1ccccc1NC(=O)c1ccc(COc2cccc3ccccc23)o1 | inconclusive [activator, partial curve, poor fit] | – |
